PubChem BioAssay AID488969 (Vanderbilt High Throughput Screening Facility, 2010)
In all, about 110,000 compounds were measured (“z-score”: median about -0.1, highest 2% from about 2 on). The list shows a part of the results. The source made the active and inactive calls.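 The calls were made as follows: active = z-score in the third read window above 3 or below -3; inactive = the rest.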

What follows are compounds tested against Metabotropic glutamate receptor 8 (Rattus norvegicus) (UniProt P70579) (assay: rat mGluR8 modulators via GIRK flux, primary screen, cell-based, thallium flux, HTS (AID 488969)). Settings: HEK293 rat mGluR8, GIRK (G protein-gated inwardly rectifying potassium channel) thallium flux, FluoZin2; at 10 µM; stronger effect = higher value; submaximal glutamate (EC20) added with thallium.
UniProt P70579, sequence (P70579 whole entry, looked up): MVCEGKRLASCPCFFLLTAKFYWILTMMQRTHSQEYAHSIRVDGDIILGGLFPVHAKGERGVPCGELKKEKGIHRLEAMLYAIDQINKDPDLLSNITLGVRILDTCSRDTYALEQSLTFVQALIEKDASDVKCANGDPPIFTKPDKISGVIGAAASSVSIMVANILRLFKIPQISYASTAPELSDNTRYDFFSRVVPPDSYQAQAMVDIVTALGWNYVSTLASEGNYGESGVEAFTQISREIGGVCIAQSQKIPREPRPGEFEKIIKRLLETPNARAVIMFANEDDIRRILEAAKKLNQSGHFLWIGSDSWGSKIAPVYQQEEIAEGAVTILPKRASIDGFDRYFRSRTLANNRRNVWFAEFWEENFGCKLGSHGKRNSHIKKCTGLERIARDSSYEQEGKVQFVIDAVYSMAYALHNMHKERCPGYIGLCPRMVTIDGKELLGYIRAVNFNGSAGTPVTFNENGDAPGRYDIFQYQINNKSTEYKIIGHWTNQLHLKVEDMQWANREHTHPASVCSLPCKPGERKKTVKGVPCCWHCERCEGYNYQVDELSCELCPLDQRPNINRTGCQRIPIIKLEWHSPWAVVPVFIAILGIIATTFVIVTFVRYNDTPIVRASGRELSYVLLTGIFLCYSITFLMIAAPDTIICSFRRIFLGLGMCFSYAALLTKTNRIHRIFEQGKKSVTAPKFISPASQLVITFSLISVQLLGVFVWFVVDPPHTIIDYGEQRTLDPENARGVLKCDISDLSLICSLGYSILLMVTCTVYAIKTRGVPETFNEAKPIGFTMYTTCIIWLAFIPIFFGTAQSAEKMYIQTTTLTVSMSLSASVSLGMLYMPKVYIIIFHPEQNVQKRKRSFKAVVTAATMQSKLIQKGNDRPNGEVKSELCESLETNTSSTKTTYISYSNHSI
With `O=C(Nc1cc(Cl)cc(Cl)c1)C(c1ccccc1)N1CCCCC1` (centres undefined) the z-score was 0.151. For `CN(c1ccc(OCC(=O)Nc2nc3ccccc3s2)cc1)S(=O)(=O)c1ccccc1`, the z-score was -0.348. Compound `COc1ccc(/C=N/NC(=O)c2cc(C)on2)c2ccccc12` has a z-score of -0.147. With `COc1ccc(C2CC(c3ccccc3)=NN2C(=O)COC(=O)c2cccc(S(=O)(=O)N3CCOCC3)c2)cc1` (centres undefined) the z-score was -0.524. In the case of `O=C1N/C(=N/Nc2ccccc2)S/C1=C\c1ccccc1`, the z-score is reported as -0.129. With `c1cn(CC2(Cn3ccnc3)COC2)cn1` the z-score was active: 3.15. Work on `Cc1ccc(C(=O)c2cc3ccccc3o2)cc1C` yielded a z-score of -0.0576. With `CCCCNC(=O)CSc1nnc(-c2ccc(S(=O)(=O)N3CCCC3)cc2)n1C` the z-score was -0.00909. `Cc1nn(CC(O)COc2ccc3c(c2)CCC3)c(C)c1C` (centres undefined) was tested, and the z-score was -0.0908. `O=c1c(N2CCOCC2)nsn1Cc1ccccc1` gave a z-score of -0.0642. `S=c1[nH]nc(-c2cccnc2)n1C1CCCCC1` gave a z-score of 0.738. `CSc1ccccc1NC(=S)Nc1cc(C)cc(C)c1` showed a z-score of -0.0199. Work on `CCN1C(=O)c2cccc3c(S(=O)(=O)Nc4ccccc4)ccc1c23` yielded a z-score of -0.865. Compound `Cc1nc(N2CCN(C)CC2)c2c(C)c(C(=O)Nc3ccc(C)c(F)c3)sc2n1` has a z-score of -0.555. `Cc1ccc(C(=O)Nc2ccccc2C(=O)NC2CCCCC2)cc1S(=O)(=O)N1CCOCC1` gave a z-score of -0.18. Compound `COc1cccc(N(C(=O)c2ccco2)C(C(=O)NC2CCCC2)c2ccc(N(C)C)cc2)c1` (centres undefined) has a z-score of 0.051. Compound `O=P(O)(CCc1ccncc1)CN1CCCCC1` has a z-score of -0.0217. `Cc1[nH]c2ccccc2c(=O)c1CN(C)Cc1ccccc1` was tested, and the z-score was 0.088. `COc1ccc(N2CCN(C(=O)NC3CCCCC3)CC2)cc1` gave a z-score of -0.261. `COc1ccc(OC)c(-n2c(=S)[nH]c3cc(C(=O)NCCCN4CCCC4=O)ccc3c2=O)c1` gave a z-score of 0.764. Compound `CCCC(=O)Nc1ccc2c(c1)C(=O)NC2=O` has a z-score of -0.148. `O=C1Nc2ccccc2N(O)N1c1cc(-c2ccccc2Cl)no1` showed a z-score of 0.349. In the case of `COC(=O)c1ccc(N2CCOCC2)c(F)c1`, the z-score is reported as -0.134. `CCC(C)NC(=O)CSc1ccc(NC(C)=O)cc1` (centres undefined) gave a z-score of -0.286. In the case of `C=C(C)CNC(=S)N1CCNC(=O)C1CC(=O)OC` (centres undefined), the z-score is reported as 0.179. `CCOC(=O)C1=C(C)NC(SC(C)=O)=NC1c1ccc(OC(C)=O)c(OC)c1` (centres undefined) showed a z-score of -1.14. For `CCn1c2ccc(Cl)cc2c2nc3ccccc3nc21`, the z-score was -0.419. `CCOc1nc(NCCN2CCOCC2)nc(Nc2ccc(C)cc2)n1` gave a z-score of -0.0761. `Cc1ccc(-n2c(SCC(N)=O)nnc2-c2ccccn2)cc1` gave a z-score of 2.09. `COC(=O)c1cc[n+](CC(=O)c2ccccc2)cc1` showed a z-score of -0.00891. In the case of `Cc1nn(Cc2ccccc2)c(Cl)c1/C=N/NC(=O)CNc1cccc(C(F)(F)F)c1`, the z-score is reported as -0.295. With `CCC1(C)OC(=O)N(CCCn2ccnc2C)C1(C)O` (centres undefined) the z-score was 0.115. For `COCCn1c(SCC(=O)Nc2sc(C)c(C)c2C#N)nnc1C(C)C`, the z-score was -0.0552. Work on `COc1ccc(Oc2c(Cl)cnn(-c3ccc(F)cc3)c2=O)cc1` yielded a z-score of -0.0572. In the case of `COC(=O)C(CCSC)NC(=O)c1cccc([N+](=O)[O-])c1` (centres undefined), the z-score is reported as -0.0969. Compound `O=C(Nc1ccc2nccnc2c1)c1cnccn1` has a z-score of 0.219. With `C(=N\c1nccs1)/Nc1nccs1` the z-score was -0.401. With `CN(C)/C=C1/N=C(c2ccccc2)OC1=O` the z-score was -0.23. Compound `COc1ccc(C2CC(c3ccccc3)=NN2C(=O)CN2N=NC3C(=O)N(c4cccc(F)c4)C(=O)C32)cc1` (centres undefined) has a z-score of 0.0157. In the case of `O=C(c1ccc(F)cc1)N1CCCCC(Sc2nnnn2-c2ccccc2)C1=O` (centres undefined), the z-score is reported as -0.282. In the case of `COc1ccc(C(=O)O)cc1S(=O)(=O)Nc1cccc(C)c1`, the z-score is reported as 0.319. In the case of `COc1ccc(CO/N=C/c2c(C)[nH]c(=O)[nH]c2=O)cc1`, the z-score is reported as active: 3.36. For `Cc1ccc(-c2cn(-c3ccccc3)c(SCC(=O)NC3CCS(=O)(=O)C3)n2)cc1C` (centres undefined), the z-score was active: 3.44. For `O=C(CCC1CCCC1)Nc1ccc(Br)cn1`, the z-score was -0.393. `COc1cccc(C(=O)N2CCN(C3CCC(c4ccccc4)CC3)CC2)c1` (centres undefined) showed a z-score of -0.715. With `COc1cccc(-c2noc(-c3cccs3)n2)c1` the z-score was -0.142. Work on `Cc1cccc(C2Nc3ccccc3C(=O)N2CCc2ccccc2)n1` (centres undefined) yielded a z-score of -1.54. `O=C(N/N=C/c1coc2ccccc2c1=O)c1cn(-c2ccccc2)nc1-c1ccccc1` showed a z-score of -0.582. `Cc1cccc(NC(=S)Nc2ccc(N3CCOCC3)cc2)c1C` was tested, and the z-score was 0.155. `COc1ccc(NS(=O)(=O)c2ccc(N3CCCC3)c(NC(=S)Nc3cccc(C)c3C)c2)cc1` showed a z-score of 0.291. In the case of `Cc1ccc(CNc2ccc(N3CCOCC3)cc2)s1`, the z-score is reported as -0.358. With `CCCCC(NC(C)=O)c1nc2ccccc2[nH]1` (centres undefined) the z-score was 0.699. Work on `Cc1c(O)cc2n(c1=O)-c1ccc(Cl)cc1C2(C)C` yielded a z-score of -0.373. Compound `CC(=O)N1N=C(c2ccco2)CC1c1ccc(C)cc1` (centres undefined) has a z-score of 0.0902. For `CCOC(=O)c1c(NC(=O)CSc2nnc(Cc3csc(N)n3)n2C)sc(C)c1C`, the z-score was -1.81. Work on `C=CCSc1nc(C)c(CC=C)c(=O)[nH]1` yielded a z-score of 0.0891. Work on `CCOC(=O)c1cnc(SC)nc1Sc1ccccc1Cl` yielded a z-score of -0.159. `c1csc(-c2csc3nc(CN4CCOCC4)nc(NCc4ccc5c(c4)OCO5)c23)c1` was tested, and the z-score was -0.042. Compound `CCn1c(SCc2ccc(F)cc2)nnc1-c1nn(-c2ccccc2)ccc1=O` has a z-score of -0.00976. `O=C(c1ccc2c(c1)OCO2)N(Cc1ccco1)C1(C(=O)NC2CCCCC2)CCCCC1` showed a z-score of 0.593. `COc1ccc(C2NC(=S)NC3=C2CCc2ccccc23)cc1OC` (centres undefined) was tested, and the z-score was -0.416. With `CC(C)Cc1nnc(NC(=O)CCN2C(=O)c3ccccc3C2=O)s1` the z-score was -0.142. `COc1ccc2occ(C(=O)c3coc4ccc(O)c(CN(C)C)c34)c2c1` showed a z-score of 0.937. With `COCCN(C(=O)c1csnn1)C(C(=O)NC1CCCCC1)c1cccs1` (centres undefined) the z-score was 0.206. Compound `CSc1nsc(/C=C/Nc2ccc(C)cc2)c1C#N` has a z-score of -0.4. Work on `N/C(=N\OC(=O)c1cc(-c2ccccc2)nc2ccccc12)c1ccc(Cl)cc1` yielded a z-score of -0.32. `Cn1c(=O)c(=O)n(C)c2cc(S(=O)(=O)Nc3ccc(OC(F)(F)F)cc3)ccc21` gave a z-score of -0.557. With `O=C(c1ccc(Cl)cc1)N1CCN(C(=O)c2ccco2)CC1` the z-score was 0.0619. In the case of `CCOC(=O)c1nnn(-c2nc(N3CCCC3)nc(N3CCCC3)n2)c1-c1ccccc1`, the z-score is reported as 0.109. Compound `O=C(Nc1ncccn1)c1cc(-c2cccc(Br)c2)nc2ccccc12` has a z-score of -0.206. With `O=C(Nc1ccc(Cl)c(Cl)c1)OCCNC(=O)c1cccc(Cl)c1` the z-score was 0.533. With `COc1ccccc1NC(=O)CCC(=O)N/N=C(/C)c1ccc(C)cc1` the z-score was -0.549. In the case of `COc1ccc(-c2csc(Nc3ccc(S(=O)(=O)Nc4cc(OC)nc(OC)n4)cc3)n2)cc1`, the z-score is reported as -0.397. Compound `CCCN1C2CCCC1CC(NC(=O)NC1CCCCC1)C2` (centres undefined) has a z-score of 0.355. `COc1ccc(NC2=CC(=O)CC(c3ccccc3)C2)c(OC)c1` (centres undefined) was tested, and the z-score was 0.118. With `NCC12CC3CC(C1)CC(CN)(C3)C2` the z-score was 0.158. In the case of `CC1CCCN(C(=O)c2ccncc2)C1` (centres undefined), the z-score is reported as -0.122. In the case of `CN(C(=O)c1ccc2c(=O)n3c(nc2c1)CCCCC3)c1ccccc1`, the z-score is reported as -0.189. In the case of `COCCCn1c(-c2ccccc2Cl)n[nH]c1=S`, the z-score is reported as 0.38. `Cc1ccc(C(=O)Nc2ccc(Cl)cn2)cc1` gave a z-score of 0.195. `COC(=O)C1=C(COc2ccc(F)cc2)NC(=O)NC1c1ccc(C)cc1C` (centres undefined) gave a z-score of -0.235. With `COc1ccc(S(=O)(=O)N2CCCC(C(=O)Nc3ccc4c(c3)OCCO4)C2)cc1` (centres undefined) the z-score was -0.103. In the case of `CC(C)CNC(=O)COC(=O)c1cc(Cl)cc(Cl)c1N`, the z-score is reported as -0.101. With `c1ccc(-c2nnnn2CCOCCn2nnnc2-c2ccccc2)cc1` the z-score was 0.669. `COc1ccc(-c2csc(NC(=O)c3ccccc3NS(=O)(=O)c3ccc(C)cc3)n2)cc1` was tested, and the z-score was -1.52. `O=C(CCN1C(=O)c2ccccc2C1=O)N1CCCCCC1` gave a z-score of 0.016. In the case of `O=C(Nc1ccccc1F)c1cc2nc(C(F)F)cc(C(F)F)n2n1`, the z-score is reported as 0.0429. `Cc1ccc(SCC(=O)N2c3ccccc3Sc3ccccc32)cc1` was tested, and the z-score was -0.197. Work on `CN(CCCNC(=O)c1ccc(N2CCCC2=O)cc1)c1ccccc1` yielded a z-score of 0.934. `O=C(NC1CCCc2ccccc21)C(Cc1ccccc1)NS(=O)(=O)c1cccs1` (centres undefined) showed a z-score of -0.156. With `CCOCCn1c(CN2CCN(c3ccccc3)CC2)nc2c1c(=O)n(C)c(=O)n2C` the z-score was 0.292. Work on `C=CCNC(=O)c1cccc(C(F)(F)F)c1` yielded a z-score of 0.0916. With `CN1CCN(C(=S)c2ccc(OCC(=O)Nc3cccc(C(F)(F)F)c3)cc2)CC1` the z-score was -0.00689. For `c1ccc(-n2nnnc2Sc2ncnc3sc4c(c23)CCCC4)cc1`, the z-score was -0.339. `CCOC(=O)c1nnn(-c2nonc2N)c1CSc1ccc(C)cc1` was tested, and the z-score was 0.333. `CCCNc1cc(C)oc(=O)c1C(=O)CCC` gave a z-score of -0.441. `Cc1cc(=O)c2c(O)c(O)ccc2o1` gave a z-score of 1.17. Work on `COc1ccc(-c2cc(-c3c(O)c(OC)c4occc4c3OC)[nH]n2)cc1` yielded a z-score of -0.28. In the case of `CCOC(=O)C1CCCN(C(=O)c2cc(=O)c3ccccc3o2)C1` (centres undefined), the z-score is reported as 2.91. `COc1cccc(Nc2cc(C)nc3nc(C)nn23)c1` showed a z-score of 0.0995. In the case of `N#CCc1c(C#N)c(N)nc(N2CCN(Cc3ccc4c(c3)OCO4)CC2)c1C#N`, the z-score is reported as -0.642. `Nc1cc(=O)[nH]c(SC/C=C/c2ccccc2)n1` gave a z-score of -0.0492. Work on `c1cncc(-c2nnc3n2C2(CCCCC2)Cc2ccccc2-3)c1` yielded a z-score of -0.785. With `S=c1[nH]ncn1-c1ccccn1` the z-score was -0.153. Compound `Cn1c(SCC(=O)NCc2ccco2)nc2ccccc2c1=O` has a z-score of -0.354. Work on `COc1cc(C(=O)NCC(=O)N/N=C/c2cccs2)cc(OC)c1OC` yielded a z-score of -0.174. `COc1ccc(-c2nnc(SCC(=O)Nc3cc(F)ccc3C)o2)cc1` gave a z-score of -0.209. With `N/C(=N\c1nc2ccccc2o1)NC(=O)c1ccccc1F` the z-score was 1.12. `C/C(CC(=O)Nc1ccc(Cl)c(Cl)c1)=N\NC(N)=S` showed a z-score of 0.503. In the case of `CC1=Nn2c(nnc2-c2cc(-c3ccccc3)n[nH]2)SC1`, the z-score is reported as 0.859. `Cc1ccc(P(C)(=O)c2ccc(C)cc2)cc1` was tested, and the z-score was 0.0656. Work on `CC(=O)N1CCC2(CC1)CC(=O)c1cc(OCC(=O)NCc3ccc(C)cc3)ccc1O2` yielded a z-score of 0.072. In the case of `CCN(CC)c1ncnc2c1ncn2Cc1c(Cl)cccc1Cl`, the z-score is reported as -0.538. For `C/C(Cl)=C\Cn1c(N2CCCC2)nc2c1c(=O)[nH]c(=O)n2C`, the z-score was 0.763.
